According to PubChem BioAssay (NCI):
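A five-concentration, 48-hour dose response in 96-well plates underlies each endpoint, interpolated linearly between surrounding concentrations. Abbreviation: GI50, concentration required for 50% inhibition of growth.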

Tested on: NCI-H322M lung
Assay: NCI tumour cell line growth inhibition, 48 h

## COC(=O)[C@@H](C)C[C@H](Cc1ccccc1)NC(=O)c1cccc([C@@H](C[C@H](C(C)C)N(C)C(=O)[C@@H](NC(=O)[C@H]2CCCCN2C)C2CC2)OC(C)=O)n1
  GI50: 54.5 nM
